PubChem BioAssay AID1347417 (National Center for Advancing Translational Sciences (NCATS), 2020)
Hit rate of the full screen: of about 120,000 compounds, about 5,300 (4.4%) were called active. The shares of active, inactive and inconclusive entries below differ from those in the screen. Calls come from the whole dose curve; as a rule, active = well fitted inhibition curve with a large enough effect; inconclusive = small, poorly fitted or top-dose-only effect; inactive = no such curve, though single readings can be large or run the other way. Potencies of inconclusive entries are doubtful fits and often do not repeat.
Potency is the fitted concentration of half-maximal effect; tags give direction and shape of the fitted curve.

Assay: qHTS Primary assay for Inhibitors of Plasmodium falciparum Dd2 growth in vitro; note: nearly all actives have a fitted effect of over 65% in size
Conditions: P. falciparum Dd2 growth, SYBR Green, 72 h; series mostly up to 28.9 µM
In short: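 Readout: SYBR Green fluorescence, 485 nm excitation, 535 nm emission, after ~16 h lysis at 37C. Before that, Dd2-infected red cells (2.5% hematocrit) grew 72 h with compound, 29 uM top final concentration.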
In the case of `Cc1cccc(C(=O)N2CCC(c3noc(COc4cccnc4)n3)CC2)c1`, the Potency is reported as inconclusive: 17.8 µM [inhibitor, single point].
In the case of `COc1cccc(C(=O)N2CCC3(CC2)NC(=O)N(c2cccc(F)c2)N3)c1OC`, the Potency is reported as inconclusive: 17.8 µM [inhibitor, single point].
In the case of `COc1ccccc1CCC(=O)NC(C)C(=O)N1CCN(c2ccccn2)CC1` (centres undefined), the Potency is reported as “inactive”.
For `CC(C)CN1C(=O)c2cccn2CC1CNC(=O)c1ccc2ccccc2n1` (centres undefined), the Potency was inconclusive: 12.6 µM [inhibitor, single point].
In the case of `Cn1nc(C(=O)NCC(=O)N2CCCCCNC(=O)CC2c2ccccc2)c2ccccc21` (centres undefined), the Potency is reported as inconclusive: 1.12 µM [inhibitor, partial curve, poor fit].
For `Cc1ccc(C)c(CN2C(=O)c3ccccc3S(=O)(=O)c3ccc(C(=O)NCCc4ccc(Cl)cc4)cc32)c1`, the Potency was inconclusive: 1.12 µM [inhibitor, full curve, poor fit].
In the case of `CN1CCN(Cc2ccc(Nc3ncc(-c4cncnc4)c4c3OCC4)cc2)CC1`, the Potency is reported as inconclusive: 31.6 µM [inhibitor, single point].
For `Cc1ccc(CCNc2nc3ccccc3c3nc(-c4cccnc4)nn23)cc1`, the Potency was inconclusive: 3.98 µM [inhibitor, single point].
In the case of `CC1(c2ccccc2)N(Cc2ccccc2F)C(=O)OC12CCN(Cc1c[nH]c3ccccc13)CC2` (centres undefined), the Potency is reported as inconclusive: 1.41 µM [inhibitor, partial curve, poor fit].
For `COc1cccc(CNC(=O)CCc2c(C)nc3c4c(C)cc(C)nc4nn3c2C)c1`, the Potency was inconclusive: 12.6 µM [inhibitor, partial curve, poor fit].
With `Cc1ccc(C2Cn3nnc(C(=O)N4CCC(C(=O)Nc5ccc(F)c(F)c5)CC4)c3CO2)cc1` (centres undefined) the Potency was inconclusive: 0.447 µM [inhibitor, full curve, poor fit].
With `COc1ccc(C(=O)NCc2nc(-c3cccc(C)c3)no2)cc1OC` the Potency was inconclusive: 0.158 µM [inhibitor, full curve, poor fit].
In the case of `CN(CCc1ccccn1)[C@H]1[C@@H]2OC[C@@H](O2)[C@@H](NC(=O)Nc2cccc(C#N)c2)[C@@H]1O`, the Potency is reported as inconclusive: 31.6 µM [inhibitor, single point].
In the case of `O=C1COCCN1C1CCN(Cc2cccnc2)CC1`, the Potency is reported as “inactive”.
In the case of `Cc1ccccc1NC(=O)Cn1c(C)cc2nc3n(c(=O)c21)CCCCC3`, the Potency is reported as “inactive”.
With `Cc1ccc2cc3cc(C(=O)N4CCN(c5ccccc5)CC4)sc3nc2c1` the Potency was “inactive”.
With `COCCn1ncc(N2CCCC(CC(=O)N3CCN(c4ccccn4)CC3)C2)cc1=O` (centres undefined) the Potency was inconclusive: 7.94 µM [inhibitor, partial curve, poor fit].
In the case of `CNC(=O)[C@@H]1CN(S(=O)(=O)c2cccc(C)c2)C[C@H]1COC`, the Potency is reported as “inactive”.
With `CC1=C[C@@H](CNC(=O)[C@@H]2CCCC[C@@H]2C(=O)O)[C@H](C(C)C)C[C@H]1Cc1nc2ccccc2[nH]1` the Potency was inconclusive: 11.2 µM [inhibitor, single point].
In the case of `Cc1cccc(C2c3cc(OCc4nc(C(=O)NCC5CC5)co4)ccc3CCN2C(=O)C2CC2)c1` (centres undefined), the Potency is reported as inconclusive: 2.82 µM [inhibitor, single point].
With `O=C(CCNc1c(-c2ccc(F)cc2)nc2cnccn12)NC1CCCC1` the Potency was “inactive”.
For `CN(Cc1ccccc1)Cc1cc(C[C@H]2CNCC[C@H]2CC(=O)N2CCOCC2)no1`, the Potency was “inactive”.
In the case of `O=C(Nc1ccc(Oc2ccccc2)cc1)c1ccc(F)c(S(=O)(=O)N2CCN(c3ccccc3F)CC2)c1`, the Potency is reported as inconclusive: 10 µM [inhibitor, single point].
With `CCn1cc(CN2CCCC23CCN(c2ccc(C(F)(F)F)cn2)CC3)cc1C#N` the Potency was inconclusive: 0.447 µM [inhibitor, full curve, poor fit].
For `CC(C)CCSc1nnc2n(-c3ccccc3)c(=O)c3c4c(sc3n12)CC(C)CC4` (centres undefined), the Potency was inconclusive: 1 µM [inhibitor, single point].
In the case of `COc1ccc(CNCCC(c2ccc(C)cc2)c2ccco2)cc1` (centres undefined), the Potency is reported as active: 12.6 µM.
For `COCCN1CCCCCC(O)c2cc(C(=O)NCc3ccc(C)o3)ccc21` (centres undefined), the Potency was inconclusive: 10 µM [inhibitor, single point].
In the case of `Cc1cc(OCC(=O)N(Cc2ccc(N(C)C)cc2)Cc2ccco2)cc(C)c1Cl`, the Potency is reported as “inactive”.
With `CCOC(=O)c1ccc(OC(=O)c2cn(-c3ccc(C)cc3)c(=O)c3ccccc23)cc1` the Potency was inconclusive: 15.8 µM [inhibitor, single point].
For `Cc1nn(-c2ccccc2)c(-n2cccc2)c1C(=O)N1CCN(c2ccccc2)CC1`, the Potency was inconclusive: 11.2 µM [inhibitor, single point].
For `CCCN1CCCC12Cc1ccccc1CN([S+](=O)([O-])c1ccccc1)C2` (centres undefined), the Potency was inconclusive: 11.2 µM [inhibitor, partial curve, poor fit].
For `O=c1[nH]c(N2CCc3ccccc3C2)nc2c1CCN(Cc1cccs1)CC2`, the Potency was inconclusive: 0.316 µM [inhibitor, partial curve, poor fit].
With `COc1ccc2oc(=O)c(C(=O)NCCc3c(C)[nH]c4ccc(C)cc34)cc2c1` the Potency was “inactive”.
In the case of `COc1cc(C(=O)NC2CCN(c3cc(-c4ccccc4)[nH]n3)C2)cc(OC)c1OC` (centres undefined), the Potency is reported as inconclusive: 17.8 µM [inhibitor, single point].
With `COc1ccccc1-c1nc2c(c(SCc3cc(C)ccc3C)n1)Cc1c(CO)cnc(C)c1O2` the Potency was inconclusive: 11.2 µM [inhibitor, partial curve, poor fit].
In the case of `COCc1nc(CCNC(=O)C(C)c2ccccc2)no1` (centres undefined), the Potency is reported as “inactive”.
For `CCCNC(=O)Cn1nc(-c2ccc(C)c(C)c2)c2cnc3ccc(OC)cc3c21`, the Potency was inconclusive: 17.8 µM [inhibitor, single point].
For `CN(C)S(=O)(=O)N1CCC(N2C(=O)C(OCC3CC3)C23CCCCC3)CC1` (centres undefined), the Potency was inconclusive: 0.355 µM [inhibitor, full curve, poor fit].
In the case of `Cc1ccc([C@H]2C[C@@H](O)[C@@H](O)[C@@H]2NCC(C)C)cc1`, the Potency is reported as inconclusive: 3.16 µM [inhibitor, partial curve].
